# Experimental data reported in the supplement of paper PMC4166925.
# ± gives the standard deviation of the averaged measurements. The full ranking holds about 33,000 sequences; the median of “E-score (dimensionless, -0.5 to 0.5)” is about -0.046, and the highest 2% start at about 0.36. Some of the results follow.
# System: T1, SpTbr T-box DNA-binding domain (GST fusion)
# T1 sequence: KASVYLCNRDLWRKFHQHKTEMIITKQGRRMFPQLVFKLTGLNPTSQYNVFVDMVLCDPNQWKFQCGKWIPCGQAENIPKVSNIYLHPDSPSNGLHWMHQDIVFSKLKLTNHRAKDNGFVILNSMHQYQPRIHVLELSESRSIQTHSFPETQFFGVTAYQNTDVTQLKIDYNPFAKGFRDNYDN
# Test: PBM E-score of 8-mer (E-score (dimensionless, -0.5 to 0.5)); Tbr is Tbrain of the sea star Patiria miniata (Pm) or the sea urchin Strongylocentrotus purpuratus (Sp); higher = stronger binding preference; most listed sequences are background and not binding sites
# Settings: the construct has about 5 more residues each side
# In short: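 GST-fused Tbr T-box DNA-binding domains (the whole T-box plus about five flanking residues) were expressed in BL21 E. coli at 20 °C and purified by glutathione affinity chromatography. Universal Agilent oligonucleotide arrays were made double-stranded by primer extension, incubated with 200 nM protein in PBS (pH 7.5), then scanned and quantified. Every ungapped 8-mer was scored from probe intensities. The Universal PBM Analysis Suite gave each word an enrichment E-score, averaged over duplicate arrays.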
row,Sequence,PBM E-score of 8-mer
1,CTATTTGA,-0.258 ± 0.014
2,GAAGATAC,-0.0451 ± 0.039
3,TAATGTCA,-0.0899 ± 0.017
4,CCCACCCA,0.185 ± 0.054
5,AACTAGGA,-0.291 ± 0.027
6,AACTATGG,-0.272 ± 0.00047
7,GCTAGGCC,-0.218 ± 0.025
8,AGTATTAT,-0.205 ± 0.093
9,AGAACTTC,-0.123 ± 0.047
10,ACCAGAGA,0.0337 ± 0.016
11,GGCGAATA,0.0396 ± 0.11
12,GCACTAAA,0.161 ± 0.031
13,GTTAACGA,0.274 ± 0.033
14,CAGCTGGA,-0.271 ± 0.033
15,ACTGGACG,0.0312 ± 0.041
16,AGATTGTC,0.204 ± 0.012
17,GGAGTCAA,-0.0304 ± 0.04
18,AAATACGT,-0.0235 ± 0.059
19,CTCTGCGA,-0.00686 ± 0.039
20,CTCGTTAC,-0.116 ± 0.031
21,TATGTCGA,-0.00544 ± 0.04
22,AAGGCTCC,-0.175 ± 0.025
23,CCGACCCC,-0.208 ± 0.015
24,CTTGTCTA,-0.118 ± 0.0089
25,AACGAACG,-0.0965 ± 0.0026

row,Sequence,PBM E-score of 8-mer
1,CTATCACC,0.363 ± 0.01
2,AGATCCCA,-0.01 ± 0.053
3,AGACGCTC,-0.111 ± 0.057
4,CTTCTTGA,-0.0972 ± 0.025
5,CTTTACAA,-0.00219 ± 0.03
6,AAGCGCTG,-0.0202 ± 0.041
7,CTCAAGGA,-0.074 ± 0.0048
8,TCAGCCGA,-0.139 ± 0.054
9,ACCCATAG,-0.16 ± 0.025
10,AAGACCTC,0.00991 ± 0.032
11,GCAGGACA,-0.0639 ± 0.0049
12,CCTCGCTA,0.176 ± 0.0058
13,CTGTTACA,0.255 ± 0.034
14,ATATAAGA,-0.259 ± 0.032
15,ACCCGTTA,0.194 ± 0.072
16,AAATAAGA,-0.0971 ± 0.0036
17,CAATGCTA,-0.125 ± 0.0024
18,CGTTTGCA,0.144 ± 0.025
19,CCGCTCGC,0.16 ± 0.068
20,CAAGGAAC,-0.142 ± 0.03
21,AGGCCAAA,-0.239 ± 0.064
22,CTGTCGAA,0.14 ± 0.011
23,AGTGATAA,0.278 ± 0.067
24,AAGATTCG,-0.0796 ± 0.047
25,GCTTAAGA,-0.247 ± 0.093

row,Sequence,PBM E-score of 8-mer
1,AAAGCAAG,-0.0849 ± 0.05
2,AGCTAACG,0.236 ± 0.016
3,ATGCAGAC,-0.142 ± 0.014
4,TCAGGCAA,-0.143 ± 0.02
5,CCCATGAA,-0.0823 ± 0.044
6,CTTCCAAA,-0.239 ± 0.021
7,CGGAGCTC,-0.317 ± 0.066
8,AACAAATG,-0.00755 ± 0.028
9,CCTTTTAC,0.0526 ± 0.015
10,ACTTAGAT,0.0897 ± 0.095
11,GGACATAC,-0.00067 ± 0.081
12,CCCGCGAA,0.371 ± 0.019
13,ATCGTAAG,-0.124 ± 0.024
14,AGTAAAAC,-0.11 ± 0.027
15,ACTGCCGC,-0.0781 ± 0.058
16,CGTGCATC,-0.1 ± 0.096
17,GAAGATCC,-0.101 ± 0.0088
18,CAGCTAGA,-0.0759 ± 0.0079
19,AACGTTTG,0.0583 ± 0.0087
20,CATAGAAC,-0.0496 ± 0.053
21,AGATAACA,0.233 ± 0.0033
22,GTGCTCTA,-0.178 ± 0.029
23,CCCTCTGC,-0.0643 ± 0.042
24,CCGATACA,0.0669 ± 0.01
25,CTCAAACC,-0.13 ± 0.14

row,Sequence,PBM E-score of 8-mer
1,AATGGCGG,-0.148 ± 0.066
2,ATGCTGCG,-0.0119 ± 0.022
3,CCATCTTA,-0.1 ± 0.069
4,CACAGTAG,0.2015 ± 0.0019
5,CGAGGGAG,-0.0399 ± 0.058
6,ACTAGTTG,0.122 ± 0.026
7,GTACAGAC,-0.0773 ± 0.037
8,AATCGGTC,0.0169 ± 0.09
9,AAGTCTGG,-0.157 ± 0.017
10,ATCATATG,-0.0751 ± 0.011
11,CAGCAGCA,-0.0652 ± 0.075
12,AGTCTGCA,0.0204 ± 0.025
13,GATAACGA,0.0769 ± 0.01
14,GACTCGCA,0.221 ± 0.024
15,ATGTAGAG,-0.247 ± 0.0037
16,ATCCATCG,-0.0451 ± 0.031
17,CCCTCTAG,0.0174 ± 0.018
18,CACAATGA,0.0327 ± 0.0024
19,CAAAATTG,-0.121 ± 0.018
20,AACCCGGC,-0.109 ± 0.003
21,AGTCGGGA,0.138 ± 0.014
22,GACTGCGC,-0.0942 ± 0.032
23,TAGGGGCA,-0.127 ± 0.04
24,CTTTAAAC,-0.114 ± 0.023
25,CGGATGAA,-0.224 ± 0.015

row,Sequence,PBM E-score of 8-mer
1,GCTCTTCA,0.083 ± 0.029
2,CATACTCA,-0.0655 ± 0.046
3,ATAAAACA,-0.0605 ± 0.11
4,ACCTCGTA,0.0632 ± 0.0068
5,CGCCACAC,0.3647 ± 0.0013
6,CCATAGCA,-0.0599 ± 0.038
7,AGAGAAGG,-0.0187 ± 0.024
8,ATTGAATC,0.0273 ± 0.028
9,ATTTCACG,0.293 ± 0.04
10,AGACTAAG,-0.306 ± 0.022
11,GAGCTTGA,-0.181 ± 0.062
12,CGGAACCC,-0.267 ± 0.031
13,ACCTGCTA,0.275 ± 0.02
14,ACTTATCC,-0.222 ± 0.015
15,AGTTGAGG,-0.0911 ± 0.054
16,GCCTGGAC,-0.13 ± 0.055
17,AAGGTTTC,0.00098 ± 0.069
18,GCGTCTAA,0.104 ± 0.11
19,AAATACTC,-0.0243 ± 0.0069
20,AGGTCGCG,0.26 ± 0.015
21,ACCTACCA,0.157 ± 0.046
22,CGAGAGGC,0.0435 ± 0.0085
23,CGCTAGAA,0.0429 ± 0.024
24,ATGGCGGG,-0.102 ± 0.061
25,CGGCAGCA,0.0185 ± 0.12

row,Sequence,PBM E-score of 8-mer
1,TCGTGGCA,0.0699 ± 0.038
2,GCGCTTAA,0.101 ± 0.028
3,CGACTTCC,-0.19 ± 0.067
4,GTCCGCAA,0.157 ± 0.016
5,ATGGCAGG,-0.0716 ± 0.0039
6,GGAGTCAC,0.128 ± 0.0043
7,GCCTTTCA,0.0318 ± 0.044
8,AGACAAGG,-0.189 ± 0.016
9,ATGGGCGA,0.118 ± 0.042
10,ACTATGAA,-0.145 ± 0.031
11,CGCAGCTC,0.113 ± 0.016
12,CCTATTGC,-0.11 ± 0.032
13,AAATACCT,-0.0934 ± 0.019
14,AAATTCTC,0.0483 ± 0.096
15,GCATGGGA,-0.2057 ± 0.0015
16,CGACCTGA,0.103 ± 0.0024
17,GATCCCAA,-0.242 ± 0.0063
18,ACACTGGA,-0.0769 ± 0.013
19,GCTGTATA,-0.0459 ± 0.019
20,AACGCCGT,0.211 ± 0.029
21,AATCAGCG,0.0273 ± 0.076
22,GACATACA,0.00383 ± 0.015
23,ACTAACTG,0.0784 ± 0.08
24,CATTTGTC,-0.0214 ± 0.013
25,GTAGAGGA,-0.227 ± 0.076

row,Sequence,PBM E-score of 8-mer
1,GCCAGAGA,-0.0994 ± 0.031
2,CATGAGGG,-0.14 ± 0.053
3,ACCCTCGG,-0.124 ± 0.045
4,CATACTGA,-0.182 ± 0.06
5,GAAGGTTA,-0.12 ± 0.012
6,CCCTTGAG,-0.102 ± 0.028
7,GCCACTGA,0.0996 ± 0.035
8,ATAACTTC,0.0225 ± 0.0034
9,AAGGAGGA,-0.255 ± 0.078
10,CCATAACG,-0.0454 ± 0.011
11,GAGCCTGA,-0.0563 ± 0.0068
12,GGAAAATA,-0.155 ± 0.034
13,AACGTCTA,-0.237 ± 0.092
14,AGGCGATC,-0.0489 ± 0.0021
15,AAGATCCC,0.0611 ± 0.027
16,ACCGCGAT,0.286 ± 0.0029
17,CGTGGTGC,0.0202 ± 0.019
18,ATTGGTGA,0.142 ± 0.059
19,GGATGAGA,-0.189 ± 0.0033
20,GAGTTCAA,-0.0639 ± 0.013
21,CCACATGC,-0.0984 ± 0.016
22,ATTACACA,0.157 ± 0.036
